Results taken from the supplement of paper PMC12067230.
The data scatter; read single values as rough.

Experiment: amyloid nucleation score relative to library mode (yeast Sup35 reporter selection) (log enrichment difference); higher = more amyloid nucleation; sequences are the first 22 residues of the Bri2 peptide extended by up to 12 random residues
Settings: random library (experiment): 1;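 active = nucleation score significantly above 0 at FDR 0.05; inactive = not significantly above 0 or absent from output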
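Further: [psi-pin-] Saccharomyces cerevisiae expressing SupN fusions, induced by 100 µM Cu2SO4, selected 7 d at 30 °C without adenine and uracil, scored by deep sequencing of output versus input.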

**Q.** For EASNCFAIRHFENKFAVETLICFNYETKNWRMRR, which amyloid nucleation score is on record?
**A.** Its amyloid nucleation score is 3.65.

**Q.** For EASNCFAIRHFENKFAVETLICFP, which amyloid nucleation score is on record?
**A.** Its amyloid nucleation score is 1.38.

**Q.** With EASNCFAIRHFENKFAVETLICFPCCFFMVFLYR as the sequence, how does the amyloid nucleation score read?
**A.** Its amyloid nucleation score is “inactive”.

**Q.** For EASNCFAIRHFENKFAVETLICFPCT, which amyloid nucleation score is on record?
**A.** The amyloid nucleation score was 5.27.

**Q.** For EASNCFAIRHFENKFAVETLICFPKVIHEYVTLR, which amyloid nucleation score is on record?
**A.** The amyloid nucleation score was “inactive”.

**Q.** For EASNCFAIRHFENKFAVETLICFPLKGGWKVCPG, which amyloid nucleation score is on record?
**A.** The amyloid nucleation score was 5.47.

**Q.** Which amyloid nucleation score does the source give for EASNCFAIRHFENKFAVETLICFPMPQYCSLSAV here?
**A.** Its amyloid nucleation score is “inactive”.

**Q.** Which amyloid nucleation score does the source give for EASNCFAIRHFENKFAVETLICFPNRLRYARLAL here?
**A.** The amyloid nucleation score was “inactive”.

**Q.** For EASNCFAIRHFENKFAVETLICFPREYSSIVVFS, which amyloid nucleation score is on record?
**A.** The amyloid nucleation score was “inactive”.

**Q.** With EASNCFAIRHFENKFAVETLICFPSDIRFWIRLA as the sequence, how does the amyloid nucleation score read?
**A.** Its amyloid nucleation score is “inactive”.

**Q.** With EASNCFAIRHFENKFAVETLICFPTWRVMNEIVS as the sequence, how does the amyloid nucleation score read?
**A.** The amyloid nucleation score was “inactive”.

**Q.** With EASNCFAIRHFENKFAVETLICFQETVRNWDIVL as the sequence, how does the amyloid nucleation score read?
**A.** The amyloid nucleation score was 2.39.

**Q.** Which amyloid nucleation score does the source give for EASNCFAIRHFENKFAVETLICFQLTHLFKFVTS here?
**A.** Its amyloid nucleation score is “inactive”.

**Q.** Which amyloid nucleation score does the source give for EASNCFAIRHFENKFAVETLICFQNHHYLPWG here?
**A.** The amyloid nucleation score was 4.77.

**Q.** Which amyloid nucleation score does the source give for EASNCFAIRHFENKFAVETLICFQRMLQFSLKYA here?
**A.** The amyloid nucleation score was -0.029.

**Q.** For EASNCFAIRHFENKFAVETLICFQRQGTLVRVSG, which amyloid nucleation score is on record?
**A.** Its amyloid nucleation score is “inactive”.

**Q.** Which amyloid nucleation score does the source give for EASNCFAIRHFENKFAVETLICFQRRHL here?
**A.** The amyloid nucleation score was 1.29.

**Q.** For EASNCFAIRHFENKFAVETLICFQRSE, which amyloid nucleation score is on record?
**A.** The amyloid nucleation score was 1.75.

**Q.** With EASNCFAIRHFENKFAVETLICFQSDAEKCGG as the sequence, how does the amyloid nucleation score read?
**A.** Its amyloid nucleation score is “inactive”.

**Q.** With EASNCFAIRHFENKFAVETLICFQSFDCQLVWDY as the sequence, how does the amyloid nucleation score read?
**A.** Its amyloid nucleation score is 3.3.

**Q.** Which amyloid nucleation score does the source give for EASNCFAIRHFENKFAVETLICFQVNAYNATIYG here?
**A.** The amyloid nucleation score was 8.21.

Same assay, conditions: random library (experiment): 2

**Q.** Which amyloid nucleation score does the source give for EASNCFAIRHFENKFAVETLICFNVPYSKTSSGV here?
**A.** Its amyloid nucleation score is 2.47.

**Q.** For EASNCFAIRHFENKFAVETLICFNWLYPIPSR, which amyloid nucleation score is on record?
**A.** The amyloid nucleation score was 5.22.

**Q.** For EASNCFAIRHFENKFAVETLICFPCSILLGLSSY, which amyloid nucleation score is on record?
**A.** The amyloid nucleation score was 4.65.

**Q.** For EASNCFAIRHFENKFAVETLICFPEKLSQWGVVN, which amyloid nucleation score is on record?
**A.** Its amyloid nucleation score is -0.626.

**Q.** For EASNCFAIRHFENKFAVETLICFPFCFIYASVGR, which amyloid nucleation score is on record?
**A.** Its amyloid nucleation score is 6.03.

**Q.** With EASNCFAIRHFENKFAVETLICFPGPGNTIRCHI as the sequence, how does the amyloid nucleation score read?
**A.** Its amyloid nucleation score is “inactive”.

**Q.** Which amyloid nucleation score does the source give for EASNCFAIRHFENKFAVETLICFPMHTGNEGAVF here?
**A.** Its amyloid nucleation score is 5.16.

**Q.** Which amyloid nucleation score does the source give for EASNCFAIRHFENKFAVETLICFPQGLKRCSYIF here?
**A.** Its amyloid nucleation score is “inactive”.

**Q.** Which amyloid nucleation score does the source give for EASNCFAIRHFENKFAVETLICFPSTPVRMYRCS here?
**A.** Its amyloid nucleation score is “inactive”.

**Q.** For EASNCFAIRHFENKFAVETLICFPTMNVWEGVVT, which amyloid nucleation score is on record?
**A.** Its amyloid nucleation score is 6.32.

**Q.** For EASNCFAIRHFENKFAVETLICFPVALCRFTSSY, which amyloid nucleation score is on record?
**A.** Its amyloid nucleation score is “inactive”.

**Q.** Which amyloid nucleation score does the source give for EASNCFAIRHFENKFAVETLICFQ here?
**A.** The amyloid nucleation score was 5.2.

**Q.** For EASNCFAIRHFENKFAVETLICFQICNGPSIRAW, which amyloid nucleation score is on record?
**A.** Its amyloid nucleation score is 6.3.

**Q.** For EASNCFAIRHFENKFAVETLICFQIKTFSRVQYE, which amyloid nucleation score is on record?
**A.** The amyloid nucleation score was “inactive”.

**Q.** For EASNCFAIRHFENKFAVETLICFQMEYSLLTFDP, which amyloid nucleation score is on record?
**A.** Its amyloid nucleation score is “inactive”.

**Q.** With EASNCFAIRHFENKFAVETLICFQNCRRSETWER as the sequence, how does the amyloid nucleation score read?
**A.** Its amyloid nucleation score is 5.14.

**Q.** Which amyloid nucleation score does the source give for EASNCFAIRHFENKFAVETLICFQRPVYYFSCIA here?
**A.** The amyloid nucleation score was “inactive”.

**Q.** For EASNCFAIRHFENKFAVETLICFQSTWYALHYAY, which amyloid nucleation score is on record?
**A.** Its amyloid nucleation score is “inactive”.

Same assay, conditions: random library (experiment): 3

**Q.** Which amyloid nucleation score does the source give for EASNCFAIRHFENKFAVETLICFNVVLIGYIVKW here?
**A.** The amyloid nucleation score was “inactive”.

**Q.** Which amyloid nucleation score does the source give for EASNCFAIRHFENKFAVETLICFPGKSNVQYREQ here?
**A.** The amyloid nucleation score was 3.78.

**Q.** Which amyloid nucleation score does the source give for EASNCFAIRHFENKFAVETLICFPHDFRSDVGAA here?
**A.** The amyloid nucleation score was 0.721.

**Q.** For EASNCFAIRHFENKFAVETLICFPIRESFGQCSF, which amyloid nucleation score is on record?
**A.** Its amyloid nucleation score is 6.67.

**Q.** Which amyloid nucleation score does the source give for EASNCFAIRHFENKFAVETLICFPPVISNAQFVD here?
**A.** Its amyloid nucleation score is “inactive”.

**Q.** Which amyloid nucleation score does the source give for EASNCFAIRHFENKFAVETLICFQALKPPHMCSG here?
**A.** The amyloid nucleation score was “inactive”.

**Q.** Which amyloid nucleation score does the source give for EASNCFAIRHFENKFAVETLICFQCAMSCLARPG here?
**A.** The amyloid nucleation score was 8.25.

**Q.** With EASNCFAIRHFENKFAVETLICFQSSDAKRTAGL as the sequence, how does the amyloid nucleation score read?
**A.** The amyloid nucleation score was 4.66.

**Q.** Which amyloid nucleation score does the source give for EASNCFAIRHFENKFAVETLICFQVHHSKVSPLK here?
**A.** Its amyloid nucleation score is “inactive”.
